The full ranking holds about 81,000 sequences; the median of “one-hybrid fitness for binding NBS DNA” is about -0.1, and the highest 2% start at about 0.36. Some of the results follow.
B1: Caulobacter ParB omega fusion; a variant is named by its letters at X, in order, B8GW30 (parent)
chain: MESVVVGEPGMSEGRRGLGRGLSALLGEVDAAPAQAPGEQLGGSREAPIEILQRNPDQPRRTFREEDLEDLSNSIREKGVLQPILVRPSPDTAGEYQIVAGERAWRAAQRAGLKTVPIMVRELDDLAVLEIGIIENVQRADLNVLEEALSYKVLMEKFERTQENIAQTIGKSXSHVANXMRLLXLPDEVQSYLVSGELTAXHARAIAAAADPVALAKQIIEGGLSVRETEALARKAPNLSAGKSKGGRPPRVKDTDTQALESDLSSVLGLDVSIDHRGSTGTLTITYATLEQLDDLCNRLTRGI

Variants of: B1
Experiment: one-hybrid fitness for binding NBS DNA (the Noc-binding site; scaled: cognate 1, non-cognate 0); higher = stronger binding
Conditions: with NBS DNA site
Outline: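 In E. coli USO, a HIS3 reporter with its site placed 19 bp from the promoter was used to select Caulobacter ParB variants randomised at four specificity codons. Growth lasted 48 hours at 37°C on histidine-free M9 containing 0.1 mM IPTG and 5 mM 3-AT. Fitness was taken as the log change in variant-to-wild-type read ratio from Illumina sequencing of pre- and post-selection plasmids, rescaled between the non-cognate and cognate sites.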

Variant	one-hybrid fitness for binding NBS DNA
MHLV	≤ 0.2
DYQT	≤ 0.2
ALPY	≤ 0.2
RLGC	≤ 0.2
RVEK	≤ 0.2
IIHV	≤ 0.2
SEIT	≤ 0.2
KIGG	≤ 0.2
AMCL	≤ 0.2
KQFG	≤ 0.2
TWPD	≤ 0.2
PNRK	≤ 0.2
RDKY	≤ 0.2
TELY	≤ 0.2
RHTT	0.427
HNRY	≤ 0.2
CGLL	≤ 0.2
YPES	≤ 0.2
KWTR	≤ 0.2
GDPA	≤ 0.2
RKHR	0.648
TKFT	≤ 0.2
QFME	≤ 0.2
PTID	≤ 0.2
IVWT	≤ 0.2

Variant	one-hybrid fitness for binding NBS DNA
TFGR	≤ 0.2
GEFS	≤ 0.2
TQVW	≤ 0.2
MCMV	≤ 0.2
FTGT	≤ 0.2
HRLY	≤ 0.2
RFYS	≤ 0.2
VWRG	≤ 0.2
ISRL	≤ 0.2
WAQC	≤ 0.2
QGTF	≤ 0.2
KLES	≤ 0.2
QKSK	≤ 0.2
WCLC	≤ 0.2
GRDC	≤ 0.2
GHTF	≤ 0.2
CAKM	≤ 0.2
TCNH	≤ 0.2
TDLT	≤ 0.2
QQKF	0.356
ANST	≤ 0.2
GFGC	≤ 0.2
LPYS	≤ 0.2
FYCC	≤ 0.2
DLKT	≤ 0.2

Variant	one-hybrid fitness for binding NBS DNA
AYWW	≤ 0.2
QVES	≤ 0.2
DPIL	≤ 0.2
RKIW	≤ 0.2
CIVS	≤ 0.2
PKQT	≤ 0.2
WLTT	≤ 0.2
VGVS	≤ 0.2
DHHQ	≤ 0.2
PCNM	≤ 0.2
RYQS	0.386
KVLS	≤ 0.2
AVRW	≤ 0.2
HFNC	≤ 0.2
CKCR	≤ 0.2
DALH	≤ 0.2
SNNY	≤ 0.2
REFL	≤ 0.2
MMPI	≤ 0.2
VDNT	≤ 0.2
ITRG	≤ 0.2
RYFF	≤ 0.2
FDHC	≤ 0.2
FNPA	≤ 0.2
SLCE	≤ 0.2

Variant	one-hybrid fitness for binding NBS DNA
RDAD	≤ 0.2
PLLC	≤ 0.2
QAYM	≤ 0.2
NICA	≤ 0.2
RYWH	≤ 0.2
TNKE	≤ 0.2
MAAT	≤ 0.2
AGTT	≤ 0.2
ADVT	≤ 0.2
TLRG	≤ 0.2
LWQS	≤ 0.2
CFGT	≤ 0.2
AHNT	≤ 0.2
TMRM	≤ 0.2
YQFV	≤ 0.2
PLDY	≤ 0.2
LACC	≤ 0.2
DCHT	≤ 0.2
QCRP	0.352
AAQL	≤ 0.2
VRHN	≤ 0.2
FDQE	≤ 0.2
LQVV	≤ 0.2
EPVS	0.215
SPDC	≤ 0.2

Variant	one-hybrid fitness for binding NBS DNA
GAPL	≤ 0.2
TGDI	≤ 0.2
KKCS	≤ 0.2
GSIG	≤ 0.2
EQLY	≤ 0.2
GTDR	≤ 0.2
CPVG	≤ 0.2
HNES	≤ 0.2
TMAT	≤ 0.2
PLDE	≤ 0.2
TISS	≤ 0.2
CAKF	≤ 0.2
VETL	≤ 0.2
NNMF	≤ 0.2
RIHY	≤ 0.2
RMFG	≤ 0.2
IHPQ	≤ 0.2
CYSP	≤ 0.2
EHQF	≤ 0.2
RTLW	≤ 0.2
VQNT	≤ 0.2
VMRE	≤ 0.2
GVPK	≤ 0.2
ISIH	≤ 0.2
LILT	≤ 0.2

Variant	one-hybrid fitness for binding NBS DNA
IYQV	≤ 0.2
TTFV	≤ 0.2
MVKT	≤ 0.2
PPPI	≤ 0.2
KNWT	≤ 0.2
KKIS	≤ 0.2
GRSC	≤ 0.2
AHIR	≤ 0.2
DNTM	≤ 0.2
NSQY	≤ 0.2
GESA	≤ 0.2
SATN	≤ 0.2
MVNT	≤ 0.2
HDED	≤ 0.2
SCAM	≤ 0.2
HRIS	≤ 0.2
CPLG	≤ 0.2
YGFR	≤ 0.2
QFLY	≤ 0.2
AWWS	≤ 0.2
CKGR	≤ 0.2
QPNK	≤ 0.2
DAGE	≤ 0.2
FNDR	≤ 0.2
YVLM	≤ 0.2

Variant	one-hybrid fitness for binding NBS DNA
RRDK	≤ 0.2
YRSR	≤ 0.2
LPPS	≤ 0.2
GGSK	≤ 0.2
KQFS	≤ 0.2
PLPA	≤ 0.2
SHVT	≤ 0.2
QMRG	0.391
INML	≤ 0.2
KDAG	≤ 0.2
TQNM	≤ 0.2
GYKS	≤ 0.2
PAHN	≤ 0.2
ISNR	≤ 0.2
TIDD	≤ 0.2
RYNV	≤ 0.2
EKCT	≤ 0.2
PTCI	≤ 0.2
PGGN	≤ 0.2
RGGM	≤ 0.2
GHQD	≤ 0.2
TCKN	≤ 0.2
GVGP	≤ 0.2
PSHA	≤ 0.2
QTIF	≤ 0.2

Variant	one-hybrid fitness for binding NBS DNA
IWMG	≤ 0.2
IVNR	≤ 0.2
RTCL	≤ 0.2
GRPV	≤ 0.2
YRTD	≤ 0.2
PTWD	≤ 0.2
PLVP	≤ 0.2
MRKP	≤ 0.2
NQFT	≤ 0.2
NAKL	≤ 0.2
AVGN	≤ 0.2
TCAR	≤ 0.2
LLEG	≤ 0.2
NLHG	≤ 0.2
LWLM	≤ 0.2
HTSY	≤ 0.2
HILE	≤ 0.2
RHWH	≤ 0.2
RWAF	≤ 0.2
INCS	≤ 0.2
